A compilation of properties of binary mixtures (doi:10.1016/j.jct.2022.106952)
Some of these densities may be calculated back from excess volumes.

Test: xn = mol fraction of the nth substance listed
Details: 101.3 kPa

CCCC[n+]1ccn(C)c1.F[P-](F)(F)(F)(F)F + CCCCCCCCN1CCCC1=O
x1 = 1
Details	mass density [kg/m3]
308.15 K	1360.4
313.15 K	1356.2
318.15 K	1352.1
323.15 K	1348

CCCCCCCCN1CCCC1=O + CCCC[n+]1ccn(C)c1.F[P-](F)(F)(F)(F)F
mass density [kg/m3]
Details	303.15 K	308.15 K	313.15 K	318.15 K	323.15 K
x2 = 0	915.8	912.2	908.5	904.9	901.2
x2 = 0.0531	939.5	935.9	932.2	928.5	924.9
x2 = 0.1034	962	958.3	954.6	951	947.3
x2 = 0.1513	983.5	979.7	976	972.3	–
x2 = 0.2034	1006.8	1003	999.3	995.6	991.8
x2 = 0.3009	1050.3	–	1042.8	1039	1035.2
x2 = 0.405	–	1093.1	1089.2	1085.4	1081.6
x2 = 0.5042	–	1137.4	1133.5	1129.6	1125.8
x2 = 0.5996	1183.9	–	–	1172.1	–
x2 = 0.6991	1228.4	1224.4	1220.4	1216.5	1212.5
x2 = 0.8029	1274.8	1270.8	1266.7	–	1258.7
x2 = 0.8451	–	1289.6	–	1281.5	1277.4
x2 = 0.8927	1315	1310.9	1306.8	–	1298.7
x2 = 0.9513	1341.7	1337.6	1333.4	1329.3	1325.2
